# From PubChem BioAssay AID463173 (ICCB-Longwood Screening Facility, Harvard Medical School, 2010)
# Hit rate of the full screen: of about 52,000 compounds, about 4,300 (8.3%) were called active. No stated cut-off is given here; in the data, active means survival mostly below about 52% (no sharp cut-off); inactive means mostly above about 56%. This is one part of the list.
# Test system: DeltatarO mutant
# Test: S. aureus survival, RN4220 and DeltatarO strains – OD600, teichoic acid synthesis inhibitors, primary screen (AID 463173)
# Conditions: S. aureus RN4220 wild type/DeltatarO growth, OD600, 18 h, stronger effect = lower value, screened at 18.75 µg/mL (by protocol)
row,Compound,survival
1,COc1ccc(NC(=O)CCNS(=O)(=O)c2cccc3nsnc23)cc1Cl,inactive: 63%
2,CC(C)(C)C(=O)NC1CCN(S(=O)(=O)c2ccc(C(F)(F)F)cc2)CC1,inactive: 96%
3,CNC(=O)c1c(O)c2cc(OC)c(OC)cc2[nH]c1=O,inactive: 99%
4,CCn1c(=O)cc(OCC(=O)N2CCN(c3ccc(OC)cc3)CC2)c2ccccc21,inactive: 71%
5,Cc1cccc(-n2ccnc2SCC(=O)Nc2cccc3ccccc23)c1C,inactive: 78%
6,CCOc1ccc(Nc2nnc(-n3nc(C)cc3C)c3ccccc23)cc1,inactive: 132%
7,COc1ccc(C(=O)Nc2ccc3c(c2)CCCN3C(=O)c2cccs2)c(OC)c1,inactive: 87%
8,COc1cc(OC)c(NC(=O)N2CCCn3nc(C)cc32)cc1Cl,active: 47%
9,COc1ccc(-c2nnc(SCC(=O)NC3CCCCC3)nc2-c2ccc(OC)cc2)cc1,inactive: 89%
10,COCCn1c(C)cc(O)c(C(c2ccccc2)N2CCN(c3ccccc3)CC2)c1=O (centres undefined),inactive: 49%
11,O=C(Cn1c(=O)n(Cc2ccc3c(c2)OCO3)c(=O)c2oc3ccccc3c21)Nc1ccccc1F,inactive: 65%
12,Cc1onc(-c2ccccc2Cl)c1C(=O)NC(C(=O)O)C(C)C (centres undefined),inactive: 86%
13,CCN(C(=O)Cn1cnc2onc(-c3ccc(F)cc3)c2c1=O)c1ccc(OC)cc1,inactive: 83%
14,Cc1oc2ncn(CC(C)C)c(=O)c2c1C(=O)NC(C)c1ccccc1 (centres undefined),inactive: 88%
15,CCOc1ccc(NC(=O)Cn2c(=O)c(CNc3ccc(CC)cc3)cc3cc4c(cc32)OCO4)cc1,active: 47%
16,CCN1CCN(c2ccc(N=Cc3ccc(N(C)C)cc3)cc2)CC1,inactive: 101%
17,Cc1ccc(CNc2ncnc3onc(-c4ccc(F)cc4)c23)cc1,inactive: 86%
18,Cc1cc(C)c2nc(NC(=O)c3ccc(S(=O)(=O)N4CCc5ccccc54)cc3)sc2c1,inactive: 83%
19,Cc1ccc(Cn2c(SCC(=O)C(C)(C)C)nc3ccsc3c2=O)cc1,inactive: 77%
20,O=C(O)CCCc1nc2ccccc2s1,inactive: 75%
21,CC1=Nc2cc(C(=O)NCCc3ccccc3)ccc2Sc2c(C)ccc(C)c21,inactive: 66%
22,Cc1cccn2c(=O)c3cc(C(=O)NCc4cccnc4)c(=N)n(CCCO)c3nc12,inactive: 82%
23,CC(C)(C)c1ccc(C(=O)NC2(C(F)(F)F)C(=O)Nc3c2c(=O)[nH]c(=O)n3-c2ccccc2)cc1 (centres undefined),inactive: 88%
24,O=C(NCc1ccccc1)c1nc(S(=O)(=O)Cc2ccccc2)ncc1Cl,active: 18%
25,COC(=O)c1c(C)oc2ccc(N(C(=O)c3ccncc3)S(=O)(=O)c3c(C)cc(C)cc3C)cc12,inactive: 175%
26,Cc1sc2ncn(CC(=O)N3CCN(c4ccc(Cl)cc4)CC3)c(=O)c2c1S(=O)(=O)N1CCN(c2ncccn2)CC1,inactive: 81%
27,CC1CC(NC(=O)c2ncn[nH]2)CC(C)(C)C1 (centres undefined),inactive: 92%

row,Compound,survival
1,CC1=C(C(N)=O)C(c2ccc(C)o2)C(C(N)=O)=C(C)N1,inactive: 82%
2,COC(=O)c1cc2occc2n1Cc1nc(-c2cccc(Cl)c2)oc1C,inactive: 64%
3,COc1ccc(NC(=O)Cn2c(=O)n(-c3ccc(C)cc3)c(=O)c3c2cnn3C)cc1,inactive: 147%
4,O=C(Nc1ccc2nc(SCC(=O)N3CCCC3)sc2c1)c1cccc(Cl)c1,inactive: 52%
5,CCOC(=O)c1c(C)[nH]c(C)c1S(=O)(=O)N(C)CC(=O)Nc1ccc(C)c(N(C)C)c1,inactive: 101%
6,CCOC(=O)c1cc2c(=O)n3ccccc3nc2n(Cc2ccco2)c1=NC(=O)c1c(F)cccc1Cl,inactive: 42%
7,CC(C)CCNC(=O)C1CCN(c2nc3ccc(Cl)cc3[nH]2)CC1,inactive: 92%
8,COc1ccc(C)cc1NC(=O)c1ccc(=O)n(Cc2ccccc2)c1,inactive: 97%
9,COc1ccc(-c2nsc(NC(=O)C(C)Oc3ccc(Cl)c(C)c3)n2)cc1 (centres undefined),active: 45%
10,COc1cccc(-n2c(=O)c3c(C)c(C)sc3n(CC(=O)NCc3ccccc3)c2=O)c1,inactive: 102%
11,COc1ccccc1NC(=O)C1=C(C)Nc2nnnn2C1c1cc(Br)c(O)c(OC)c1 (centres undefined),active: 55%
12,Cc1ccc(C)c(Cn2c(=O)cc(C)c3c(C)nn(-c4cccc(F)c4)c32)c1,inactive: 77%
13,COc1ccc(/C=C/c2nc(C#N)c(NCCc3ccccc3)o2)cc1OC,inactive: 91%
14,COc1ccc(NC(=O)c2c(C)oc3ccc(O)c(CN4CCCCCC4)c23)cc1Cl,inactive: 94%
15,COc1ccc(OC)c(CCNC(=O)c2cnn(-c3ccccc3Cl)c2C2CCN(C(=O)OC(C)(C)C)CC2)c1,inactive: 88%
16,Cc1cccc(C(=O)Nc2c(C(=O)NCc3ccc(Cl)cc3)sc3nc(C)cc(C)c23)c1,inactive: 55%
17,COc1ccc(Nc2nc3c(S(=O)(=O)c4ccccc4)nnn3c3ccsc23)cc1OC,inactive: 98%
18,COc1ccc(CCNC(=O)c2cn(C)c3ccc(S(=O)(=O)N(C)C4CCCCC4)cc3c2=O)cc1OC,inactive: 81%
19,CC(=O)N1c2ccc(S(=O)(=O)NCC3CCC(C(=O)Nc4cccc(C)c4C)CC3)cc2CC1C (centres undefined),inactive: 83%
20,CCOCCCNC(=O)C(c1ccc(OC)cc1)N(Cc1ccc2c(c1)OCO2)C(=O)c1ccccc1O (centres undefined),inactive: 62%
21,Cc1ccccc1C(=O)Nc1c(C)nc(Nc2ccccc2)nc1Nc1ccccc1,inactive: 79%
22,Cc1ccc(NC(=O)Cn2nc(C)n3cccc3c2=O)c(C)c1,inactive: 96%
23,Cc1cccc(N2CCN(C(=O)c3cc4c(=O)n(C)c5ccccc5c4s3)CC2C)c1 (centres undefined),inactive: 61%
24,CCCN(CCC)CCNC(=O)c1ccc2c(c1)NC(=O)C(CS(=O)(=O)Cc1cccc(Br)c1)N2 (centres undefined),inactive: 124%
25,Cc1sc2ncn(CC(=O)N3CCN(c4cccc(Cl)c4)CC3)c(=O)c2c1S(=O)(=O)N1CCN(c2ncccn2)CC1,inactive: 63%
26,COc1ccccc1N1CCN(S(=O)(=O)CCNC(=O)COc2ccc(C(C)C)cc2)CC1,inactive: 86%
27,CCOc1ccccc1N1CC(c2nc3ccccc3n2Cc2c(C)cc(C)cc2C)CC1=O (centres undefined),inactive: 92%
